According to US20250025582A1, “LIGANDS AND THEIR USE” (THE UNIVERSITY OF SYDNEY, priority 2020, published 2025):

B1: Compound D2-mAb[^177Lu]: Compound D2-Girentuximab conjugate radiolabelled with 177Lu (conjugate, chains of the INN, looked up)
heavy: DVKLVESGGGLVKLGGSLKLSCAASGFTFSNYYMSWVRQTPEKRLELVAAINSDGGITYYLDTVKGRFTISRDNAKNTLYLQMSSLKSEDTALFYCARHRSGYFSMDYWGQGTSVTVSS[human IgG1 constant region not given here]
light: DIVMTQSQRFMSTTVGDRVSITCKASQNVVSAVAWYQQKPGQSPKLLIYSASNRYTGVPDRFTGSGSGTDFTLTISNMQSEDLADFFCQQYSNYPWTFGGGTKLEIKRTVAAPSVFIFPPSDEQLKSGTASVVCLLNNFYPREAKVQWKVDNALQSGNSQESVTEQDSKDSTYSLSSTLTLSKADYEKHKVYACEVTHQGLSSPVTKSFNRGEC
modifications: Compound D2 chelator, 177Lu
notes: Compound D2-Girentuximab conjugate radiolabelled with 177Lu
B2: Compound D2-mAb[^89Zr]: Compound D2-Girentuximab conjugate radiolabelled with 89Zr (conjugate, chains of the INN, looked up)
heavy: DVKLVESGGGLVKLGGSLKLSCAASGFTFSNYYMSWVRQTPEKRLELVAAINSDGGITYYLDTVKGRFTISRDNAKNTLYLQMSSLKSEDTALFYCARHRSGYFSMDYWGQGTSVTVSS[human IgG1 constant region not given here]
light: DIVMTQSQRFMSTTVGDRVSITCKASQNVVSAVAWYQQKPGQSPKLLIYSASNRYTGVPDRFTGSGSGTDFTLTISNMQSEDLADFFCQQYSNYPWTFGGGTKLEIKRTVAAPSVFIFPPSDEQLKSGTASVVCLLNNFYPREAKVQWKVDNALQSGNSQESVTEQDSKDSTYSLSSTLTLSKADYEKHKVYACEVTHQGLSSPVTKSFNRGEC
modifications: Compound D2 chelator, 89Zr
notes: Compound D2-Girentuximab conjugate radiolabelled with 89Zr

Tested on: HT-29 cells
Experiment: Cell binding assay: membrane-bound and internalised fractions of radiolabelled mAb
Assay type: cell-based
Conditions: 1 h and 2 h
Method: HT-29 cells were seeded at a density of 7.5×10^2 cells/well in a 24-well plate with a final number of approximately 2.5×10^5 cells per well. The radiolabelled mAbs (Compound D2-mAb[^89Zr], Compound D2-mAb[^177Lu], DFOB-mAb[^89Zr], DOTA-mAb[^177Lu]) were diluted in serum-free (SF) cell growth medium (0.02 μg, 15 mCi) and 100 μL of each solution was added to each well. The cells were incubated in triplicate for 0.5, 1, and 2 hours at 37° C. in a 5% CO2 atmosphere in a humidified incubator.
At each time point, internalization was halted by removing the growth medium and washing the cells twice with ice-cold PBS (1×, pH 7.4, 200 μL). […] The buffer was collected from each well and the radioactivity measured in a gamma counter to determine the membrane-bound fraction. […]
Cells were treated with sodium hydroxide (1N, 200 μL) for 30 minutes to lyse the cells, internalised fractions collected, and the radioactivity measured of the subsequent fractions in a gamma-counter.
Cells were counted after the assay from 4 non-experimental wells and the cell numbers were averaged to obtain an estimate of the number of cells per well. Non-specific binding and internalization were then determined by co-incubating cells with non-radiolabelled (2 μg, 50 μL) and radio-labelled (0.02 μg, 50 μL) compound for each well, and repeating the above procedures for membrane-bound and internalised fractions.

Molecule	fraction of membrane bound or internalised radiolabelled mAb (Compound D2-mAb[177Lu] compared with DOTA-mAb[177Lu])	fraction of membrane bound or internalised radiolabelled mAb (Compound D2-mAb[89Zr] compared with DFOB-mAb[89Zr])
B1	similar	
B2		similar
